Results as given in the supplement of paper PMC9446081.
Screen size: about 39,000 compounds; about 220 (0.56%) showed activity. The list shows a part of the results.

tested on: Escherichia coli K-12 BW25113; experiment: relative growth (OD600 normalised to plate interquartile mean) (fraction); higher = less growth inhibition, active = 0.2 or less; conditions: 50 µM; LB; incubation time: overnight (16-24 h)
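Also: static incubation at 37 °C against the wild-type strain, values averaged over two biological replicates.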

How did the relative growth turn out when Cc1cnc[nH]1 was run?
Its relative growth is inactive: 0.989.

Which relative growth does the source give for CN1C(=O)/C(=C/c2cn(CC(=O)N3CCOCC3)c3ccccc23)C(=O)NC1=S here?
Its relative growth is inactive: 1.04.

COc1ccc([C@H]2CC(=O)N3CCNC[C@@H]23)cc1 was tested. Which relative growth did it give?
The relative growth was inactive: 1.03.

For O=C1NC(=S)NC(=O)C1CN1CCOCC1, which relative growth is on record?
Its relative growth is inactive: 0.954.

With CN1C[C@H]2CN(Cc3nccn3C)C[C@H]2C1=O as the compound, how does the relative growth read?
The relative growth was inactive: 0.961.

How did the relative growth turn out when CC(C)[C@H](N)C(=O)N1CCC[C@H]1B(O)O was run?
The relative growth was inactive: 0.997.

Which relative growth does the source give for Cc1ccc(OC(=O)N(C)C[C@H]2OCc3ccccc3-c3c(n(C)c4ccccc34)C(=O)N([C@@H](C)CO)C[C@H]2C)cc1 here?
Its relative growth is inactive: 0.992.

NC[C@@H](CS(=O)(=O)O)c1ccc(Cl)cc1 was tested. Which relative growth did it give?
The relative growth was inactive: 0.984.

How did the relative growth turn out when C1CC(NC2CCOCC2)CCO1 was run?
The relative growth was inactive: 1.06.

For CCOC(=O)c1c(CN2CCN(c3ccccc3)CC2)n(Cc2ccccc2)c2cc(Br)c(O)cc12, which relative growth is on record?
The relative growth was inactive: 1.03.

For COCC12CN(C=O)C3C4C(OC)C1C3(C(OC)CC2O)C1CC2(O)C(OC)C(O)C4(OC(C)=O)C1C2OC(=O)c1ccccc1 (stereo unspecified), which relative growth is on record?
The relative growth was inactive: 1.04.

N#C[C@H]1NCc2cnnn2-c2ccccc21 was tested. Which relative growth did it give?
The relative growth was inactive: 0.992.

CN1C[C@@H]2C[C@H](C(=O)Nc3cccnc3)[C@@H](C1)O2 was tested. Which relative growth did it give?
The relative growth was inactive: 0.97.

CC(C)(O)C1C2OC(=O)C1C1(O)CC3OC34C(=O)OC2C14C (stereo unspecified) was tested. Which relative growth did it give?
Its relative growth is inactive: 0.926.

With O.O.O.O=C([O-])C1[O][Sb]2[O]C(=O)C([O]2)C(C(=O)[O-])[O][Sb]2[O]C(=O)C1[O]2.[K+].[K+] (stereo unspecified) as the compound, how does the relative growth read?
Its relative growth is inactive: 0.651.

How did the relative growth turn out when N#C[C@H](O[C@@H]1O[C@H](CO[C@@H]2O[C@H](CO)[C@@H](O)[C@H](O)[C@H]2O)[C@@H](O)[C@H](O)[C@H]1O)c1ccccc1 was run?
Its relative growth is inactive: 0.992.

Which relative growth does the source give for NC(Cc1ccc(N(CCCl)CCCl)cc1)C(=O)O (stereo unspecified) here?
Its relative growth is inactive: 0.99.

NCCc1nc2ccccc2[nH]1 was tested. Which relative growth did it give?
The relative growth was inactive: 1.03.

NCCc1ccc(S(N)(=O)=O)cc1 was tested. Which relative growth did it give?
Its relative growth is inactive: 1.01.

With CCC1(O)CC(O)c2c(cc3c(c2O)C(=O)c2c(O)ccc(O)c2C3=O)C1C(=O)OC (stereo unspecified) as the compound, how does the relative growth read?
The relative growth was inactive: 1.05.

Which relative growth does the source give for CC1C(=O)OC2CCN3CC=C(COC(=O)C(C)(O)C1(C)O)C23 (stereo unspecified) here?
Its relative growth is inactive: 0.993.

How did the relative growth turn out when COCC(=O)N1[C@@H]2c3ccc(C4=CCCC4)c(=O)n3C[C@H]1[C@H](CO)[C@H]2C(=O)OC was run?
Its relative growth is inactive: 1.01.

With NC(=O)[C@H]1CNC(=O)C1 as the compound, how does the relative growth read?
Its relative growth is inactive: 0.998.

N[C@H]1C[C@H]1c1ccccc1 was tested. Which relative growth did it give?
Its relative growth is inactive: 0.987.

How did the relative growth turn out when O=C(O)C[C@@H]1CC[C@H]2NC[C@@H](O)COC[C@@H]2O1 was run?
The relative growth was inactive: 0.921.

Which relative growth does the source give for N=C(N)/N=C(\N)Nc1ccc(Cl)cc1 here?
The relative growth was inactive: 0.727.

How did the relative growth turn out when Cc1ccnc(N2CCNCC2)c1 was run?
Its relative growth is inactive: 0.989.

For CNCC(O)c1ccc(O)cc1.CNCC(O)c1ccc(O)cc1.O=C(O)C(O)C(O)C(=O)O (stereo unspecified), which relative growth is on record?
The relative growth was inactive: 1.06.

For CC(=O)OC1C2CCC3C(C)(O)C4CC(O)C(C)(C)C4(O)C(O)CC13CC2(C)O (stereo unspecified), which relative growth is on record?
Its relative growth is inactive: 1.14.

With CCO[C@H]1[C@H]2CC[C@@H]1NC2 as the compound, how does the relative growth read?
Its relative growth is inactive: 1.02.

With O=c1c(O)c(-c2ccc(O)c(O)c2)oc2c(O)c(O)cc(O)c12 as the compound, how does the relative growth read?
Its relative growth is inactive: 1.11.

Which relative growth does the source give for CN1C(=O)[C@]23CC4=CC=C[C@H](O)[C@H]4N2C(=O)[C@@]1(CO)SS3 here?
Its relative growth is active: 0.0665.

For CCCCC(=O)N1CC[C@H]2CNC[C@H]21, which relative growth is on record?
The relative growth was inactive: 0.938.

Which relative growth does the source give for Cc1cc(CCN)on1 here?
Its relative growth is inactive: 0.974.

For O.O=P1(N(CCCl)CCCl)NCCCO1 (stereo unspecified), which relative growth is on record?
Its relative growth is inactive: 1.09.

Cl.OC1CCCCC1N1CCC(c2ccccc2)CC1 (stereo unspecified) was tested. Which relative growth did it give?
The relative growth was inactive: 1.13.

For C(=N/C12CN3CN(CN(C3)C1)C2)/c1cccnc1, which relative growth is on record?
Its relative growth is inactive: 0.977.

With O=C(O)[C@H]1C[C@H]2CCCCN2C1 as the compound, how does the relative growth read?
The relative growth was inactive: 1.03.

How did the relative growth turn out when COCCCNC(=O)[C@@]1(Cc2ccccc2CN=[N+]=[N-])N=C(c2ccc(OCCCO)cc2)O[C@H]1c1ccccc1N=[N+]=[N-] was run?
The relative growth was inactive: 1.02.

Which relative growth does the source give for NCC(=O)c1ccccc1 here?
The relative growth was inactive: 1.

With CC(C)(C)[C@@]1(O)C[C@H]2OC(=O)C[C@]23C(=O)O[C@H]2OC(=O)[C@@H](O)[C@]231 as the compound, how does the relative growth read?
The relative growth was inactive: 1.01.

With CC[C@@H](C)NC=C1C(=O)NC(=O)NC1=O as the compound, how does the relative growth read?
The relative growth was inactive: 1.01.

Which relative growth does the source give for CN(C)C(=O)Oc1cccc([N+](C)(C)C)c1.COS(=O)(=O)[O-] here?
Its relative growth is inactive: 0.889.

CC[C@H]1/C=C/C=C/C[C@@H](C)[C@H](O)[C@@](C)(O)C(=O)[C@@H](C)[C@H](O)[C@@H](C)C(=O)[C@@H](C)[C@H](O)[C@@H](C)/C=C/C(=O)O[C@@H]2[C@H](C)[C@H](CC1)O[C@]1(CC[C@H](C)[C@H](C[C@@H](C)O)O1)[C@H]2C was tested. Which relative growth did it give?
Its relative growth is inactive: 0.939.

Nc1ccc(Cl)cc1Cl was tested. Which relative growth did it give?
Its relative growth is inactive: 1.02.

OC[C@@H](O)Cc1ccc2c(c1)OCO2 was tested. Which relative growth did it give?
Its relative growth is inactive: 1.01.

How did the relative growth turn out when Cc1c(N)nc([C@H](CC(N)=O)NC[C@@H](N)C(N)=O)nc1C(=O)N[C@H](C(=O)N[C@@H](C)[C@H](O)[C@@H](C)C(=O)N[C@@H](C(=O)NCCc1nc(-c2nc(C(=O)NCCC[S+](C)C)cs2)cs1)[C@@H](C)O)[C@@H](O[C@H]1O[C@H](CO)[C@H](O)[C@@H](O)[C@H]1O[C@H]1O[C@H](CO)[C@@H](O)[C@H](OC(N)=O)[C@@H]1O)c1c[nH]cn1 was run?
The relative growth was active: 0.0355.

For CC(C)(N)Cc1ccccc1, which relative growth is on record?
Its relative growth is inactive: 0.989.

Which relative growth does the source give for CN(C)[C@@H]1C(=O)[C@@H](C(N)=O)C(=O)[C@@]2(O)C(=O)[C@H]3C(=O)c4c(O)ccc(Cl)c4[C@@](C)(O)[C@H]3C[C@@H]12 here?
Its relative growth is active: 0.037.

For O=[N+]([O-])c1c(NCCO)ccc2nonc12, which relative growth is on record?
The relative growth was inactive: 1.01.

How did the relative growth turn out when NC(=O)CN1CC[C@@H](NC(=O)[C@@H]2CCCN2)C1=O was run?
Its relative growth is inactive: 1.02.

COc1ccc(C(=O)O)cc1OC was tested. Which relative growth did it give?
The relative growth was inactive: 1.09.

Which relative growth does the source give for CN(C)C(=O)Oc1ccc[n+](C)c1.[Br-] here?
Its relative growth is inactive: 0.96.

How did the relative growth turn out when COc1ccc(OC)c(CN)c1 was run?
The relative growth was inactive: 1.

O=C1CNC[C@@H]2c3cccc(F)c3CCN12 was tested. Which relative growth did it give?
Its relative growth is inactive: 0.961.

CCN(CC)S(=O)(=O)c1ccc(Cn2nc(C(=O)Nc3ccc(N4CCCCC4)cc3)c3ccccc32)cc1 was tested. Which relative growth did it give?
Its relative growth is inactive: 0.995.
